# In PubChem BioAssay (NCI):
#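 A five-concentration, 48-hour dose response in 96-well plates underlies each endpoint, interpolated linearly between surrounding concentrations. GI50 is the concentration that inhibits growth by half. Definition used: TGI = concentration required for complete inhibition of growth.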
# Test system: NCI-H322M lung
# Experiment: inhibition of tumour cell growth, NCI panel, 48 h
Structure (SMILES),GI50 [µM],TGI [µM]
Nc1nc(Nc2ccc(Cl)cc2)n(Cc2cccc(Br)c2)n1,34,> 100
COc1cc(OC)cc(-c2cc3ccc(N(C)C)cc3c(=O)[nH]2)c1,0.076,> 100
